Holding throughout (assay): glycan array binding signal (z-score within array); higher = stronger binding
Holding throughout (conditions): glycan notation: IUPAC condensed, linker removed

Test [1] deals with Gal(b1-4)GlcNAc(b1-2)[Gal(b1-4)GlcNAc(b1-6)]Man(a1-6)[Gal(b1-4)GlcNAc(b1-2)Man(a1-3)]Man(b1-4)GlcNAc(b1-4)[Fuc(a1-6)]GlcNAc. An outline of the steps:
(§1)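 Glycan array binding is given as a within-array Z-score, which can be read as non-binding when negative. The arrays, 3228 of them, came from the Consortium for Functional Glycomics database and were retained only where the protein sequence was available. Z-scores were averaged across arrays of the same protein sequence at different concentrations or buffers and across linkers.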

Test [2] has as its target Gal(b1-4)GlcNAc(b1-2)[Gal(b1-4)GlcNAc(b1-6)]Man(a1-6)[GlcNAc(b1-4)][Gal(b1-4)GlcNAc(b1-2)Man(a1-3)]Man(b1-4)GlcNAc(b1-4)GlcNAc. A digest of the protocol:
as §1

Test [3] deals with Gal(b1-4)GlcNAc(b1-2)[Gal(b1-4)GlcNAc(b1-6)]Man(a1-6)[GlcNAc(b1-4)][Gal(b1-4)GlcNAc(b1-2)[Gal(b1-4)GlcNAc(b1-4)]Man(a1-3)]Man(b1-4)GlcNAc(b1-4)[Fuc(a1-6)]GlcNAc. A digest of the protocol: as §1
The target in test [4] is Gal(b1-4)GlcNAc(b1-3)Gal(b1-3)GalNAc. An outline of the steps:
as §1

In test [5] the target is Gal(b1-4)GlcNAc(b1-3)Gal(b1-3)GlcNAc. An outline of the steps: as §1
Test [6] has as its target Gal(b1-4)GlcNAc(b1-3)Gal(b1-4)Glc. An outline of the steps:
as §1

The target in test [7] is Gal(b1-4)GlcNAc(b1-3)Gal(b1-4)GlcNAc. A digest of the protocol:
as §1

Test [8] concerns the target Gal(b1-4)GlcNAc(b1-3)Gal(b1-4)GlcNAc(b1-2)Man(a1-3)[Gal(b1-4)GlcNAc(b1-3)Gal(b1-4)GlcNAc(b1-2)Man(a1-6)]Man(b1-4)GlcNAc(b1-4)GlcNAc. A digest of the protocol:
as §1

Test [9] deals with Gal(b1-4)GlcNAc(b1-3)Gal(b1-4)GlcNAc(b1-2)Man(a1-3)[Gal(b1-4)GlcNAc(b1-3)Gal(b1-4)GlcNAc(b1-2)Man(a1-6)]Man(b1-4)GlcNAc(b1-4)[Fuc(a1-6)]GlcNAc. An outline of the steps:
as §1

The target of test [10] is Gal(b1-4)GlcNAc(b1-3)Gal(b1-4)GlcNAc(b1-2)[Gal(b1-4)GlcNAc(b1-3)Gal(b1-4)GlcNAc(b1-6)]Man(a1-6)[Gal(b1-4)GlcNAc(b1-3)Gal(b1-4)GlcNAc(b1-2)Man(a1-3)]Man(b1-4)GlcNAc(b1-4)GlcNAc. A digest of the protocol:
as §1

Test [11] concerns the target Gal(b1-4)GlcNAc(b1-3)Gal(b1-4)GlcNAc(b1-2)[Gal(b1-4)GlcNAc(b1-3)Gal(b1-4)GlcNAc(b1-6)]Man(a1-6)[Gal(b1-4)GlcNAc(b1-3)Gal(b1-4)GlcNAc(b1-2)Man(a1-3)]Man(b1-4)GlcNAc(b1-4)[Fuc(a1-6)]GlcNAc. An outline of the steps:
as §1

Test [12] has as its target Gal(b1-4)GlcNAc(b1-3)Gal(b1-4)GlcNAc(b1-3)Gal(b1-4)GlcNAc. An outline of the steps:
as §1

Test [13] addresses Gal(b1-4)GlcNAc(b1-3)Gal(b1-4)GlcNAc(b1-3)Gal(b1-4)GlcNAc(b1-2)Man(a1-3)[Gal(b1-4)GlcNAc(b1-3)Gal(b1-4)GlcNAc(b1-3)Gal(b1-4)GlcNAc(b1-2)Man(a1-6)]Man(b1-4)GlcNAc(b1-4)GlcNAc. A digest of the protocol:
as §1

Test [14] concerns the target Gal(b1-4)GlcNAc(b1-3)Gal(b1-4)GlcNAc(b1-3)Gal(b1-4)GlcNAc(b1-2)Man(a1-3)[Gal(b1-4)GlcNAc(b1-3)Gal(b1-4)GlcNAc(b1-3)Gal(b1-4)GlcNAc(b1-2)Man(a1-6)]Man(b1-4)GlcNAc(b1-4)[Fuc(a1-6)]GlcNAc. A digest of the protocol:
as §1

In test [15] the target is Gal(b1-4)GlcNAc(b1-3)Gal(b1-4)GlcNAc(b1-3)Gal(b1-4)GlcNAc(b1-2)[Gal(b1-4)GlcNAc(b1-3)Gal(b1-4)GlcNAc(b1-3)Gal(b1-4)GlcNAc(b1-6)]Man(a1-6)[Gal(b1-4)GlcNAc(b1-3)Gal(b1-4)GlcNAc(b1-3)Gal(b1-4)GlcNAc(b1-2)Man(a1-3)]Man(b1-4)GlcNAc(b1-4)[Fuc(a1-6)]GlcNAc. An outline of the steps:
as §1

Test [16] has as its target Gal(b1-4)GlcNAc(b1-3)Gal(b1-4)GlcNAc(b1-3)Gal(b1-4)GlcNAc(b1-3)Gal(b1-4)GlcNAc(b1-2)Man(a1-3)[Gal(b1-4)GlcNAc(b1-3)Gal(b1-4)GlcNAc(b1-3)Gal(b1-4)GlcNAc(b1-3)Gal(b1-4)GlcNAc(b1-2)Man(a1-6)]Man(b1-4)GlcNAc(b1-4)GlcNAc. An outline of the steps:
as §1

Test [17] addresses Gal(b1-4)GlcNAc(b1-3)Gal(b1-4)GlcNAc(b1-3)Gal(b1-4)GlcNAc(b1-3)Gal(b1-4)GlcNAc(b1-2)Man(a1-3)[Gal(b1-4)GlcNAc(b1-3)Gal(b1-4)GlcNAc(b1-3)Gal(b1-4)GlcNAc(b1-3)Gal(b1-4)GlcNAc(b1-2)Man(a1-6)]Man(b1-4)GlcNAc(b1-4)[Fuc(a1-6)]GlcNAc. A digest of the protocol: as §1
The target of test [18] is Gal(b1-4)GlcNAc(b1-3)Gal(b1-4)GlcNAc(b1-3)Gal(b1-4)GlcNAc(b1-3)Gal(b1-4)GlcNAc(b1-2)[Gal(b1-4)GlcNAc(b1-3)Gal(b1-4)GlcNAc(b1-3)Gal(b1-4)GlcNAc(b1-3)Gal(b1-4)GlcNAc(b1-6)]Man(a1-6)[Gal(b1-4)GlcNAc(b1-3)Gal(b1-4)GlcNAc(b1-3)Gal(b1-4)GlcNAc(b1-3)Gal(b1-4)GlcNAc(b1-2)Man(a1-3)]Man(b1-4)GlcNAc(b1-4)[Fuc(a1-6)]GlcNAc. An outline of the steps: as §1
Test [19] concerns the target Gal(b1-4)GlcNAc(b1-3)Gal(b1-4)GlcNAc(b1-3)Gal(b1-4)GlcNAc(b1-3)Gal(b1-4)GlcNAc(b1-3)Gal(b1-4)GlcNAc(b1-2)Man(a1-3)[Gal(b1-4)GlcNAc(b1-3)Gal(b1-4)GlcNAc(b1-3)Gal(b1-4)GlcNAc(b1-3)Gal(b1-4)GlcNAc(b1-3)Gal(b1-4)GlcNAc(b1-2)Man(a1-6)]Man(b1-4)GlcNAc(b1-4)GlcNAc. A digest of the protocol:
as §1

Test [20] addresses Gal(b1-4)GlcNAc(b1-3)Gal(b1-4)GlcNAc(b1-3)Gal(b1-4)GlcNAc(b1-3)Gal(b1-4)GlcNAc(b1-3)Gal(b1-4)GlcNAc(b1-2)Man(a1-3)[Gal(b1-4)GlcNAc(b1-3)Gal(b1-4)GlcNAc(b1-3)Gal(b1-4)GlcNAc(b1-3)Gal(b1-4)GlcNAc(b1-3)Gal(b1-4)GlcNAc(b1-2)Man(a1-6)]Man(b1-4)GlcNAc(b1-4)[Fuc(a1-6)]GlcNAc. A digest of the protocol: as §1
The target in test [21] is Gal(b1-4)GlcNAc(b1-3)Gal(b1-4)GlcNAc(b1-3)Gal(b1-4)GlcNAc(b1-3)Gal(b1-4)GlcNAc(b1-3)Gal(b1-4)GlcNAc(b1-2)[Gal(b1-4)GlcNAc(b1-3)Gal(b1-4)GlcNAc(b1-3)Gal(b1-4)GlcNAc(b1-3)Gal(b1-4)GlcNAc(b1-3)Gal(b1-4)GlcNAc(b1-6)]Man(a1-6)[Gal(b1-4)GlcNAc(b1-3)Gal(b1-4)GlcNAc(b1-3)Gal(b1-4)GlcNAc(b1-3)Gal(b1-4)GlcNAc(b1-3)Gal(b1-4)GlcNAc(b1-2)Man(a1-3)]Man(b1-4)GlcNAc(b1-4)[Fuc(a1-6)]GlcNAc. A digest of the protocol: as §1

The target in test [22] is Gal(b1-4)GlcNAc(b1-3)Gal(b1-4)GlcNAc(b1-3)Gal(b1-4)GlcNAc(b1-3)Gal(b1-4)GlcNAc(b1-3)Gal(b1-4)GlcNAc(b1-3)Gal(b1-4)GlcNAc(b1-2)Man(a1-3)[Gal(b1-4)GlcNAc(b1-3)Gal(b1-4)GlcNAc(b1-3)Gal(b1-4)GlcNAc(b1-3)Gal(b1-4)GlcNAc(b1-3)Gal(b1-4)GlcNAc(b1-3)Gal(b1-4)GlcNAc(b1-2)Man(a1-6)]Man(b1-4)GlcNAc(b1-4)GlcNAc. A digest of the protocol: as §1
The target in test [23] is Gal(b1-4)GlcNAc(b1-3)Gal(b1-4)GlcNAc(b1-3)GalNAc. A digest of the protocol: as §1

The record followed here is the supplement of paper PMC8728848.

The list shows a part of the results.

B1: Banana lectin (Musa acuminata) (protein)
chain: MNGAIKVGAWGGNGGSAFDMGPAYRIISVKIFSGDVVDAVDVTFTYYGKTETRHFGGSGGTPHEIVLQEGEYLVGMKGEFGNYHGVVVVGKLGFSTNKKSYGPFGNTGGTPFSLPIAAGKISGFFGRGGDFIDAIGVYLEP
For B1, the “glycan array binding signal (z-score)” value in test [1] is -0.147; in test [2], -0.195; in test [3] it was -0.195; in test [4], -0.196; in test [5], -0.194; in [6], -0.193. Also, the “glycan array binding signal (z-score)” value in test [7] was -0.193; in [8], -0.172; in test [9] it was -0.172; in test [10], -0.144; in test [11], -0.171; in [12], -0.196. Further, the “glycan array binding signal (z-score)” value is -0.182 in test [13]; -0.182 in test [14]; -0.169 in [15]; -0.179 in [16]; -0.174 in test [17]; -0.176 in test [18]. In addition, the “glycan array binding signal (z-score)” value in [19] is -0.162; in test [20], -0.113; in test [21], -0.12; in [22], -0.131; in test [23], -0.188.
